In the supplement of paper PMC4967469:

Assays:
Experiment in all cases: Viability of human cancer cell lines after 72 h of drug (GDSC screen)
[1] = compound: CC(C)N(CCCNC(=O)Nc1ccc(C(C)(C)C)cc1)C[C@H]1O[C@@H](n2cc(Br)c3c(N)ncnc32)[C@H](O)[C@@H]1O [SGC0946]; conditions: top dose 0.5 µM; top dose inferred
Method: (§1)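 Human cancer cell lines in 384-well plates, medium with 10% serum, drug for 72 h over a 256-fold dose range (nine 2-fold or five 4-fold steps up to the top dose). Adherent lines were fixed and stained with the nucleic acid dye Syto60, suspension lines read with resazurin; signal relative to control wells, capped at 0 and 100%. One two-parameter sigmoid per drug and line, fitted in a mixed model over all curves with the slope shared within a line.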

[2] = compound: COc1ccc(COc2ccc(Cc3cnc(N)nc3N)cc2OC)cc1 [GW-2580]; conditions: top dose 20 µM; top dose inferred
Method: as §1

[3] = compound: CCC/C=C/C=C/C(=O)O[C@H]1/C(=C/C(=O)OC)C[C@H]2C[C@H]([C@@H](C)O)OC(=O)C[C@H](O)C[C@@H]3C[C@H](OC(C)=O)C(C)(C)[C@](O)(C[C@@H]4C/C(=C/C(=O)OC)C[C@H](/C=C/C(C)(C)[C@]1(O)O2)O4)O3 [Bryostatin 1]; conditions: top dose 0.008 µM; top dose inferred
Method: as §1

Row | Cell Line | AUC [1] | IC50 [1] [nM] | AUC [2] | IC50 [2] [µM] | AUC [3] | IC50 [3] [nM]
1 | 769-P (kidney, adherent) | 0.976 | > 500 | 0.955 | > 20 | 0.94 | > 8
2 | 786-0 (kidney, adherent) | 0.984 | > 500 | 0.973 | > 20 | 0.905 | > 8
3 | A172 (glioma, adherent) | 0.987 | > 500 | 0.984 | > 20 | 0.988 | > 8
4 | A204 (rhabdomyosarcoma, adherent) | 0.975 | > 500 | 0.977 | > 20 | 0.956 | > 8
5 | A673 (rhabdomyosarcoma, adherent) | 0.989 | > 500 | 0.97 | > 20 | 0.99 | > 8
6 | AN3-CA (endometrium, adherent) | 0.983 | > 500 | 0.978 | > 20 | 0.958 | > 8
7 | BCPAP (thyroid, adherent) | 0.988 | > 500 | 0.98 | > 20 | 0.958 | > 8
8 | BEN (non-small cell lung carcinoma, adherent) | 0.985 | > 500 | 0.971 | > 20 | 0.941 | > 8
9 | BFTC-909 (kidney, adherent) | 0.987 | > 500 | 0.986 | > 20 | 0.972 | > 8
10 | BHY (head and neck, adherent) | 0.985 | > 500 | 0.971 | > 20 | 0.972 | > 8
11 | BICR31 (head and neck, adherent) | – | – | 0.985 | > 20 | 0.968 | > 8
12 | BPH-1 (prostate, adherent) | 0.979 | > 500 | 0.95 | > 20 | 0.797 | 4.24
13 | CAL-54 (kidney, adherent) | 0.983 | > 500 | 0.976 | > 20 | 0.939 | > 8
14 | CAL-62 (thyroid, adherent) | 0.978 | > 500 | 0.983 | > 20 | 0.942 | > 8
15 | CAL-148 (breast, suspension) | – | – | 0.99 | > 20 | 0.99 | > 8
16 | CAMA-1 (breast, adherent) | 0.982 | > 500 | 0.967 | > 20 | 0.975 | > 8
17 | CCRF-CEM (lymphoblastic leukaemia, suspension) | 0.988 | > 500 | 0.991 | > 20 | 0.967 | > 8
18 | CHP-134 (neuroblastoma, suspension) | – | – | 0.976 | > 20 | – | –
19 | COLO-792 (melanoma, adherent) | 0.987 | > 500 | 0.979 | > 20 | 0.954 | > 8
20 | COLO-829 (melanoma, adherent) | 0.975 | > 500 | 0.979 | > 20 | 0.89 | > 8
21 | COR-L32 (small cell lung carcinoma, suspension) | 0.965 | > 500 | – | – | – | –

Row | Cell Line | AUC [1] | IC50 [1] [nM] | AUC [2] | IC50 [2] [µM] | AUC [3] | IC50 [3] [nM]
22 | COR-L105 (lung adenocarcinoma, adherent) | 0.979 | > 500 | 0.968 | > 20 | 0.955 | > 8
23 | COR-L303 (small cell lung carcinoma, suspension) | – | – | 0.971 | > 20 | – | –
24 | COR-L311 (small cell lung carcinoma, suspension) | – | – | 0.974 | > 20 | – | –
25 | Caov-3 (ovary, adherent) | – | – | 0.989 | > 20 | 0.991 | > 8
26 | ChaGo-K-1 (non-small cell lung carcinoma, adherent) | 0.983 | > 500 | 0.983 | > 20 | 0.958 | > 8
27 | DEL (lymphoid neoplasm, suspension) | 0.993 | > 500 | 0.994 | > 20 | 0.987 | > 8
28 | Daudi (Burkitt lymphoma, suspension) | 0.982 | > 500 | 0.991 | > 20 | 0.99 | > 8
29 | GAMG (glioma, adherent) | 0.982 | > 500 | 0.974 | > 20 | 0.985 | > 8
30 | GCT (soft tissue, adherent) | 0.988 | > 500 | 0.985 | > 20 | 0.989 | > 8
31 | GP5d (large intestine, adherent) | 0.99 | > 500 | 0.986 | > 20 | 0.989 | > 8
32 | H2591 (mesothelioma, adherent) | 0.98 | > 500 | 0.981 | > 20 | 0.982 | > 8
33 | H2803 (mesothelioma, adherent) | 0.979 | > 500 | 0.968 | > 20 | 0.976 | > 8
34 | H2804 (mesothelioma, adherent) | 0.982 | > 500 | 0.972 | > 20 | 0.968 | > 8
35 | H2810 (mesothelioma, adherent) | 0.983 | > 500 | – | – | – | –
36 | H2818 (mesothelioma, adherent) | 0.988 | > 500 | 0.988 | > 20 | 0.988 | > 8
37 | H-EMC-SS (chondrosarcoma, adherent) | 0.951 | > 500 | 0.976 | > 20 | 0.97 | > 8
38 | HCC1599 (breast, suspension) | – | – | 0.979 | > 20 | 0.977 | > 8
39 | HCC1806 (breast, adherent) | 0.988 | > 500 | 0.989 | > 20 | 0.958 | > 8
40 | HCT-116 (large intestine, adherent) | – | – | 0.982 | > 20 | 0.952 | > 8
41 | HLE (liver, adherent) | 0.985 | > 500 | 0.975 | > 20 | 0.988 | > 8
42 | HO-1-N-1 (head and neck, adherent) | 0.988 | > 500 | 0.986 | > 20 | 0.987 | > 8

Row | Cell Line | AUC [1] | IC50 [1] [nM] | AUC [2] | IC50 [2] [µM] | AUC [3] | IC50 [3] [nM]
43 | HPAC (pancreas, adherent) | – | – | 0.875 | > 20 | 0.866 | > 8
44 | HPAF-II (pancreas, adherent) | 0.978 | > 500 | 0.958 | > 20 | 0.914 | > 8
45 | HSC-3 (head and neck, adherent) | 0.989 | > 500 | 0.988 | > 20 | 0.989 | > 8
46 | HT-144 (melanoma, adherent) | 0.98 | > 500 | 0.982 | > 20 | 0.977 | > 8
47 | HTC-C3 (thyroid, adherent) | 0.981 | > 500 | 0.975 | > 20 | 0.944 | > 8
48 | HeLa (cervix, adherent) | 0.981 | > 500 | 0.988 | > 20 | 0.967 | > 8
49 | Hs940-T (melanoma, adherent) | 0.981 | > 500 | 0.98 | > 20 | – | –
50 | IM-95 (stomach, adherent) | – | – | 0.976 | > 20 | 0.982 | > 8
51 | IST-MES1 (mesothelioma, adherent) | 0.986 | > 500 | 0.982 | > 20 | 0.951 | > 8
52 | J82 (bladder, adherent) | 0.987 | > 500 | 0.988 | > 20 | 0.972 | > 8
53 | JAR (urogenital system, adherent) | 0.986 | > 500 | 0.968 | > 20 | 0.984 | > 8
54 | JEKO-1 (B-cell lymphoma, suspension) | 0.985 | > 500 | – | – | – | –
55 | Jurkat (T-cell leukaemia, suspension) | 0.992 | > 500 | – | – | – | –
56 | K-562 (chronic myeloid leukaemia, suspension) | – | – | – | – | 0.987 | > 8
57 | KARPAS-1106P (B-cell lymphoma, suspension) | 0.993 | > 500 | – | – | – | –
58 | KASUMI-1 (acute myeloid leukaemia, suspension) | 0.963 | > 500 | 0.947 | > 20 | – | –
59 | KMS-11 (myeloma, suspension) | 0.979 | > 500 | 0.975 | > 20 | – | –
60 | KYSE-140 (oesophagus, adherent) | – | – | 0.984 | > 20 | 0.982 | > 8
61 | NCI-H748 (small cell lung carcinoma, suspension) | – | – | 0.915 | > 20 | 0.975 | > 8
62 | NCI-H929 (myeloma, suspension) | 0.985 | > 500 | – | – | – | –
63 | NCI-H2066 (small cell lung carcinoma, adherent) | 0.948 | > 500 | – | – | – | –

Row | Cell Line | AUC [1] | IC50 [1] [nM] | AUC [2] | IC50 [2] [µM] | AUC [3] | IC50 [3] [nM]
64 | NCI-H2171 (small cell lung carcinoma, suspension) | – | – | 0.991 | > 20 | 0.99 | > 8
65 | NCI-H2196 (small cell lung carcinoma, adherent) | – | – | 0.98 | > 20 | 0.986 | > 8
66 | NCI-H2228 (lung adenocarcinoma, adherent) | – | – | 0.976 | > 20 | 0.977 | > 8
67 | NK-92MI (lymphoid neoplasm, suspension) | – | – | – | – | 0.988 | > 8
68 | SCC-3 (B-cell lymphoma, suspension) | – | – | 0.992 | > 20 | 0.995 | > 8
69 | SKM-1 (haematopoietic neoplasm, suspension) | 0.974 | > 500 | – | – | – | –
70 | SNU-175 (large intestine, suspension) | – | – | 0.966 | > 20 | – | –
71 | SNU-475 (liver, adherent) | – | – | 0.991 | > 20 | 0.991 | > 8
72 | SNU-1040 (large intestine, adherent) | 0.963 | > 500 | 0.982 | > 20 | – | –
73 | SU-DHL-1 (anaplastic large cell lymphoma, suspension) | – | – | 0.997 | > 20 | 0.997 | > 8
74 | SU-DHL-10 (B-cell lymphoma, suspension) | 0.993 | > 500 | 0.998 | > 20 | – | –
75 | SW1116 (large intestine, adherent) | 0.984 | > 500 | 0.98 | > 20 | – | –
76 | TALL-1 (T-cell lymphoblastic leukaemia, suspension) | – | – | 0.989 | > 20 | 0.99 | > 8
77 | TE-441-T (rhabdomyosarcoma, adherent) | – | – | 0.989 | > 20 | 0.989 | > 8
78 | U-266 (myeloma, semi-adherent) | 0.981 | > 500 | – | – | – | –
79 | UACC-812 (breast, adherent) | – | – | 0.988 | > 20 | 0.983 | > 8
80 | VM-CUB-1 (bladder, adherent) | – | – | 0.985 | > 20 | 0.968 | > 8
81 | YMB-1-E (breast, adherent) | – | – | 0.965 | > 20 | – | –

Lines with a small IC50 respond at low doses; a fit beyond the top or the lowest dose is shown as a bound at that dose. The AUC spans the tested range (256-fold, ending at the top dose) of the same fit; it is 1 without any effect and falls as sensitivity rises. An inferred top dose was calculated from the reported fits.
